Counter-ions that a name gives are not always drawn. Among all 1,500 compounds or so, about 30 (2%) showed activity.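 How the source made its calls: active = robust z-score below -2; a few such results were not called.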 The list shows a part of the results.
Tested on: optoTopBP1 Flp-In 293 T-REx (HEK293) cells
Experiment: light-induced TopBP1 condensate (nuclear foci) count, plate-normalised robust z-score vs non-control wells; higher = more TopBP1 condensates (negative = condensation inhibitor), active = hit call of the paper
Conditions: 10 µM; incubation time 2 h

Row | SMILES | light-induced TopBP1 condensate (z-score)
1 | CN1CCC[C@@H]1Cc1c[nH]c2ccc(CCS(=O)(=O)c3ccccc3)cc12 [Eletriptan] | inactive: -0.0129
2 | CC(C)[N+](C)(CCOC(=O)C1c2ccccc2Oc2ccccc21)C(C)C [Propantheline bromide] | inactive: -0.0433
3 | CC(C)Cc1ccc(CC(=O)O)cc1 [Ibufenac] | inactive: -0.127
4 | Nc1ccccc1S(N)(=O)=O [2-Aminobenzenesulfonamide] | inactive: -1.04
5 | COc1ccccc1Oc1c(NS(=O)(=O)c2ccc(C(C)(C)C)cc2)nc(-c2ncccn2)nc1OCCO [Bosentan] | inactive: 0.343
6 | NS(=O)(=O)c1cc2c(cc1Cl)NC(C(Cl)Cl)NS2(=O)=O (stereo not drawn) [Trichlormethiazide] | inactive: 0.564
7 | CN[C@@H]1[C@H](O)[C@H](NC)[C@H]2O[C@@]3(O)C(=O)C[C@@H](C)O[C@H]3O[C@@H]2[C@H]1O [Spectinomycin dihydrochloride] | inactive: 0.546
8 | Cc1onc(-c2ccccc2Cl)c1C(=O)N[C@@H]1C(=O)N2[C@@H]1SC(C)(C)[C@@H]2C(=O)O [Cloxacillin sodium salt] | inactive: -0.159
9 | N[C@@H](C(=O)N[C@@H]1C(=O)N2C(C(=O)O)=C(Cl)CC[C@H]12)c1ccccc1 [Loracarbef] | inactive: 0.325
10 | C#Cc1cccc(Nc2ncnc3cc(OCCOC)c(OCCOC)cc23)c1 [Erlotinib] | inactive: 1.27
11 | CC(C)Nc1cccnc1N1CCN(C(=O)c2cc3cc(NS(C)(=O)=O)ccc3[nH]2)CC1 [Delavirdine] | inactive: 0.915
12 | CN[C@@H]1[C@@H](O[C@H]2O[C@H](CO)[C@@H](N)[C@H](O)[C@H]2O)OC2C[C@@H](N)[C@@H](O[C@H]3[C@H](O)[C@@H](O)[C@H](N)C[C@@H]3N)OC2[C@@H]1O (stereo partly drawn) [Apramycin] | inactive: 0.974
13 | Cc1c(-c2ccccc2)oc2c(C(=O)OCCN3CCCCC3)cccc2c1=O [Flavoxate hydrochloride] | inactive: -0.363
14 | CCOC(=O)C(C)(N)Cc1cc(I)c(Oc2cc(I)c(O)c(I)c2)c(I)c1 (stereo not drawn) [Etiroxate hydrochloride] | inactive: -0.327
15 | CCCCc1cc2ccccc2c(OCCN(C)C)n1 [Dimethisoquin hydrochloride] | inactive: -1.52
16 | CC(C(=O)O)c1ccc2c(c1)[nH]c1ccc(Cl)cc12 (stereo not drawn) [Carprofen] | inactive: -0.54
17 | Cc1cccc(C)c1NC(=O)C(C)N (stereo not drawn) [Tocainide hydrochloride] | inactive: 1.66
18 | Cc1ccccc1C(=O)Nc1ccc(C(=O)N2CCCC(O)c3cc(Cl)ccc32)c(C)c1 (stereo not drawn) [Tolvaptan] | inactive: -0.617
19 | Cc1cccc(C)c1NC(=O)CC12CCCN1CCC2 [Pilsicainide Hydrochloride] | inactive: -0.679
20 | Nc1nc2[nH]cnc2c(=S)[nH]1 [Tioguanine] | inactive: 0.487
21 | CC(C)c1cc2c(cc1S(=O)(=O)O)[C@@]1(C)CCC[C@@](C)(C(=O)O)[C@@H]1CC2 [Ecabet sodium] | inactive: -0.0726

Row | SMILES | light-induced TopBP1 condensate (z-score)
22 | O=C(OCC(O)CO)c1ccccc1Nc1ccnc2cc(Cl)ccc12 (stereo not drawn) [Glafenine hydrochloride] | inactive: 0.834
23 | NC(=O)c1cn(Cc2c(F)cccc2F)nn1 [Rufinamide] | inactive: 0.403
24 | CC(C(=O)O)c1ccc(-c2ccccc2)c(F)c1 (stereo not drawn) [Flurbiprofen] | inactive: -0.793
25 | C[C@H]1O[C@@H](O[C@H]2[C@@H](O)C[C@H](O[C@H]3[C@@H](O)C[C@H](O[C@H]4CC[C@@]5(C)[C@H](CC[C@@H]6[C@@H]5C[C@@H](O)[C@]5(C)[C@@H](C7=CC(=O)OC7)CC[C@]65O)C4)O[C@@H]3C)O[C@@H]2C)C[C@H](O)[C@@H]1O [Digoxin] | active: -2.42
26 | COc1cc([S+](C)[O-])ccc1-c1nc2cccnc2[nH]1 (stereo not drawn) [Sulmazole] | inactive: 1.19
27 | Nc1nc(CC(=O)Nc2ccc(CCNC[C@H](O)c3ccccc3)cc2)cs1 [Mirabegron] | inactive: 2.84
28 | NC[C@@H]1O[C@H](O[C@H]2[C@@H](O)[C@H](O[C@@H]3[C@@H](O)[C@H](N)C[C@H](N)[C@H]3O[C@H]3O[C@H](CO)[C@@H](O)[C@H](O)[C@H]3N)O[C@@H]2CO)[C@H](N)[C@@H](O)[C@@H]1O [Paromomycin sulfate] | inactive: 0.152
29 | COc1ccccc1OCC(O)CO (stereo not drawn) [Guaifenesin] | inactive: 1.14
30 | CC(=O)[C@H]1CC[C@H]2[C@@H]3C=CC4=CC(=O)CC[C@@]4(C)[C@@H]3CC[C@]12C [Dydrogesterone] | inactive: 1.07
31 | CN1[C@@H]2CC[C@H]1C[C@@H](OC(=O)c1c[nH]c3ccccc13)C2 [Tropisetron hydrochloride] | inactive: 0.644
32 | Cc1cccc(C)c1OCC(C)N (stereo not drawn) [Mexiletine hydrochloride] | inactive: -1.11
33 | N#Cc1cc(NC(=O)C(=O)O)c(Cl)c(NC(=O)C(=O)O)c1 [Lodoxamide] | inactive: 0.686
34 | COc1ccc(/C=C/C(=O)Nc2ccccc2C(=O)O)cc1OC [Tranilast] | inactive: 0.231
35 | CCOC(=O)C1=C(COCCN)NC(C)=C(C(=O)OC)C1c1ccccc1Cl (stereo not drawn) [Amlodipine] | inactive: -1.57
36 | Cc1c(N(C)C)c(=O)n(-c2ccccc2)n1C [Amidopyrine] | inactive: 0.149
37 | Oc1c(Cl)cc(Cl)c(Cl)c1Cc1c(O)c(Cl)cc(Cl)c1Cl [Hexachlorophene] | inactive: -1.28
38 | OC(CNCC(O)C1CCc2cc(F)ccc2O1)C1CCc2cc(F)ccc2O1 (stereo not drawn) [Nebivolol hydrochloride] | inactive: -0.227
39 | CC(=O)NS(=O)(=O)c1ccc(NC(=O)c2ccccc2C(=O)O)cc1 [Phthalylsulfacetamide] | inactive: 0.552
40 | CC[C@H](C)[C@H](N)C1=N[C@H](C(=O)N[C@@H](CC(C)C)C(=O)N[C@H](CCC(=O)O)C(=O)N[C@H](C(=O)N[C@H]2CCCCNC(=O)[C@H](CC(N)=O)NC(=O)[C@@H](CC(=O)O)NC(=O)[C@H](Cc3cnc[nH]3)NC(=O)[C@@H](Cc3ccccc3)NC(=O)[C@H]([C@@H](C)CC)NC(=O)[C@@H](CCCN)NC2=O)[C@@H](C)CC)CS1 [Bacitracin] | inactive: -1.45
41 | CN1CCN(CCCN2c3ccccc3Sc3ccc(C(F)(F)F)cc32)CC1 [Trifluoperazine dihydrochloride] | inactive: -1.07
42 | COc1ccc(OC)c(C(O)CNC(=O)CN)c1 (stereo not drawn) [Midodrine hydrochloride] | inactive: -0.342

Row | SMILES | light-induced TopBP1 condensate (z-score)
43 | CN(C)CCN1C(=O)c2ccccc2N(C)c2ccccc21 [Dibenzepine hydrochloride] | inactive: 0.243
44 | CN(C(=O)C(Cl)Cl)c1ccc(OC(=O)c2ccco2)cc1 [Diloxanide furoate] | inactive: 0.164
45 | Nc1ccn([C@H]2CC[C@@H](CO)O2)c(=O)n1 [Zalcitabine] | inactive: 0.161
46 | CN(C)CCOC(C)(c1ccccc1)c1ccccn1 (stereo not drawn) [Doxylamine succinate] | inactive: 0.568
47 | CC(=O)c1ccc2c(c1)N(CCCN(C)C)c1ccccc1S2 [Acetopromazine maleate salt] | inactive: -0.654
48 | C[C@@H](O)[C@H]1C(=O)N2C(C(=O)O)=C(S[C@@H]3CN[C@H](CNS(N)(=O)=O)C3)[C@H](C)[C@H]12 [Doripenem monohydrate] | inactive: 1.08
49 | Oc1c(I)cc(Cl)c2cccnc12 [Clioquinol] | inactive: -0.446
50 | CC(C)(C#N)c1cc(Cn2cncn2)cc(C(C)(C)C#N)c1 [Anastrozole] | inactive: 0.567
51 | C(=C\c1ccccc1)/CN1CCN(C(c2ccccc2)c2ccccc2)CC1 [Cinnarizine] | inactive: -0.84
52 | O=C(C1CCCCC1)N1CC(=O)N2CCc3ccccc3C2C1 (stereo not drawn) [Praziquantel] | inactive: -0.679
53 | COc1ccc2c(c1)c(CC(=O)O)c(C)n2C(=O)c1ccc(Cl)cc1 [Indomethacin] | inactive: 0.294
54 | Nc1nc2ccc(OC(F)(F)F)cc2s1 [Riluzole hydrochloride] | inactive: -0.134
55 | CN1CCC(=C2c3ccccc3CCc3cccnc32)CC1 [Azatadine maleate] | inactive: -1.62
56 | CC(C)(C)NCC(O)COc1cccc2c1CCC(=O)N2 (stereo not drawn) [Carteolol hydrochloride] | inactive: 1.6
57 | C=C1c2c(Cl)ccc(O)c2C(=O)C2=C(O)[C@]3(O)C(=O)C(C(N)=O)=C(O)[C@@H](N(C)C)[C@@H]3[C@@H](O)[C@H]12.O=C(O)c1cc(S(=O)(=O)O)ccc1O [Meclocycline sulfosalicylate] | inactive: 0.506
58 | CC(=O)NCCCS(=O)(=O)O [Acamprosate calcium] | inactive: -1.11
59 | CCOC(=O)O[C@]1(C(=O)COC(=O)CC)CC[C@H]2[C@@H]3CCC4=CC(=O)C=C[C@]4(C)[C@H]3[C@@H](O)C[C@@]21C [Prednicarbate] | inactive: 0.076
60 | Cc1cc(C(C)(C)C)c(O)c(C)c1CC1=NCCN1 [Oxymetazoline hydrochloride] | inactive: -0.78
61 | CN(C)CCCN1c2ccccc2Sc2ccccc21 [Promazine hydrochloride] | inactive: -0.124
62 | NS(=O)(=O)c1cc(C(=O)O)cc(N2CCCC2)c1Oc1ccccc1 [Piretanide] | inactive: 0.111
63 | COc1ccc([C@@H]2CC(=O)c3c(O)cc(O[C@@H]4O[C@H](CO[C@@H]5O[C@@H](C)[C@H](O)[C@@H](O)[C@H]5O)[C@@H](O)[C@H](O)[C@H]4O)cc3O2)cc1O [Hesperidin] | inactive: 0.579
